Source: PubChem BioAssay (NCATS)
Several values for one entry are separate records, joined by “and”; a condition that tells them apart may be missing. Equal entries are not always repeated. Inconclusive means that the source gave no clear call. Such entries were picked first, then a sample of the others. Potencies of inconclusive entries are doubtful fits and often do not repeat. The source holds several records for some structures; these can differ, active in one and inactive in another. Activity calls are given as the source filed them. Calls follow the shape of the dose curve; as a rule, active = well fitted inhibition curve with a large enough effect; inconclusive = small, poorly fitted or top-dose-only effect; inactive = flat fitted curve, though single readings scatter.

system: KB-3-1; assay: Cytotoxic Profiling of Annotated Libraries Using Quantitative High-Throughput Screening (AID 1296008); settings: Five cell lines viability, CellTiter-Glo ATP luminescence, 48-72 h; max response: stronger effect = lower value
Outline: (§1)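 Cytotoxicity was measured as CellTiter-Glo ATP luminescence, read after 10 min at room temperature. Compound treatment of the cells lasted 48 or 72 hr at 37 degrees Celsius in a qHTS format.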
% is scaled to controls: 0 for no effect and ±100 for the full control effect; potency is read from the fitted curve at half-maximal effect; tags tell the direction and shape of the fitted curve.
Also: nearly all actives have a fitted effect of over 60% in size.

Row | Structure (SMILES) | Potency | max response
1 | COc1ccc2cc1Oc1ccc(cc1)C[C@H]1c3cc(c(OC)cc3CCN1C)Oc1c(OC)c(OC)cc3c1[C@H](C2)N(C)CC3 | inconclusive: 7.43 µM [inhibitor, partial curve] | –
2 | c1cc(OCCN2CCCCC2)cc(-c2n[nH]c3ccc(-c4ncn[nH]4)cc23)c1 | inconclusive: 20.6 µM [inhibitor, partial curve, poor fit] | –
3 | O=C(O)CCNC(=O)c1ccc(N=Nc2ccc(O)c(C(=O)O)c2)cc1 | inconclusive: 29.6 µM [inhibitor, single point] | –
4 | CN1c2ccccc2C(=O)N2CCc3c([nH]c4ccccc34)C21 (stereo not drawn) | active: 5.17 µM | –
5 | COc1cc2c(cc1OC)[C@@H]1C(=O)c3ccc4c(c3O[C@@H]1CO2)C=CC(C)(C)O4 | inconclusive: 0.0132 µM [inhibitor, full curve, poor fit] | –
6 | CC1(O)CC(c2nc(-c3ccc4ccc(-c5ccccc5)nc4c3)c3c(N)nccn23)C1 (stereo not drawn) | inconclusive: 26.4 µM [inhibitor, single point] and inconclusive: 29.1 µM [inhibitor, single point] | –
7 | CCOC(=O)N1c2ccc(C(F)(F)F)cc2[C@@H](N(Cc2cc(C(F)(F)F)cc(C(F)(F)F)c2)C(=O)OC)C[C@H]1CC | – | inactive: 1.68%
8 | Cn1cc(-c2ccncc2)c(-c2ccc(OCc3ccc4ccccc4n3)cc2)n1 | inconclusive: 2.64 µM [inhibitor, full curve] and inconclusive: 29.1 µM [inhibitor, single point] | –
9 | CCN(CC)CCNC(=O)c1ccc2nc(-c3ccccc3)c(-c3ccc(CN4CCC(n5c(=O)[nH]c6ccccc65)CC4)cc3)nc2c1 | inconclusive: 25.9 µM [inhibitor, single point] | –
10 | CC(C)C[C@H](NC(=O)c1cc2ccccc2s1)C(=O)N1CCN(C(=O)[C@H](CO)NS(=O)(=O)c2ccc(Cl)cc2Cl)CC1 | inconclusive: 33.2 µM [inhibitor, single point] | –

system: NIH3T3; assay: as above; settings: Five cell lines viability, CellTiter-Glo ATP luminescence, 48-72 h; max response: stronger effect = lower value
Outline: as §1

Row | Structure (SMILES) | Potency
11 | Cc1ccc(-c2cc(C(F)(F)F)nn2-c2ccc(S(N)(=O)=O)cc2)cc1 | inconclusive: 29.9 µM [inhibitor, partial curve, poor fit]
12 | Nc1c2c(nc3ccccc13)CCCC2 | inconclusive: 37.2 µM [inhibitor, single point]
13 | Cc1cc(C(C)Nc2ccccc2)c2nc(N3CCOCC3)cc(=O)n2c1 (stereo not drawn) | inconclusive: 37.2 µM [inhibitor, single point] and active: 4.61 µM

system: MKL-1; assay: qHTS assay to identify novel small-molecules to repurpose for Merkel cell carcinoma treatment (AID 1296009); settings: MCC and control cell lines, CellTiter-Glo viability, 72 h; series mostly up to 46 µM; activity change, negative = cytotoxicity: at the top concentration
Outline: (§2)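 Cell viability, measured as CellTiter-Glo luminescence, was normalized between DMSO and no-cell wells. The cells had been exposed to 8- or 11-point compound dilutions for 72 hr at 37 degree celsius.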

Row | Structure (SMILES) | activity change, negative = cytotoxicity | Potency
14 | COc1ccc2c(OCc3nnc4ccc(-c5ccccc5)nn34)ccnc2c1 | inactive: 4.02% | –
15 | Cc1cc(-c2ncc(CC(=O)Nc3ccc(-c4cnccn4)cn3)cc2C)ccn1 | – | inconclusive: 13.2 µM [inhibitor, partial curve, poor fit]
16 | O=C(Nc1ncc(SCCN2CCCC2)s1)[C@]1(c2ccc(S(=O)(=O)C3CC3)cc2)C[C@@H]1C1CCCCC1 | – | inconclusive: 29.6 µM [inhibitor, single point]
17 | N#CC(c1ccc(Cl)cc1)c1c(Cl)cc(-n2ncc(=O)[nH]c2=O)cc1Cl (stereo not drawn) | – | inconclusive: 23.5 µM [inhibitor, single point]
18 | CCc1nc(-c2cccc(C)c2)c(-c2ccnc(NC(=O)c3ccccc3)c2)s1 | – | inconclusive: 7.43 µM [inhibitor, partial curve]
19 | CC(=O)c1c(C)c2cnc(Nc3ccc(N4CCNCC4)cn3)nc2n(C2CCCC2)c1=O | – | inconclusive: 20.9 µM [inhibitor, single point]
20 | CCN(CC)CCCCNc1nc2cc(Cl)c(Cl)cc2nc1-c1ccc(-c2cccs2)s1 | – | active: 23.5 µM
21 | C=CC(=O)Nc1cc(NC(=O)c2ccc(C)c(NC(=O)c3ccno3)c2)cc(C(F)(F)F)c1 | – | inconclusive: 20.9 µM [inhibitor, partial curve]
22 | COc1ccc2cc1Oc1ccc(cc1)C[C@H]1c3cc(c(OC)cc3CCN1C)Oc1c(OC)c(OC)cc3c1[C@H](C2)N(C)CC3 | – | inconclusive: 37.2 µM [inhibitor, single point]
23 | CC1(O)CC(c2nc(-c3ccc4ccc(-c5ccccc5)nc4c3)c3c(N)nccn23)C1 (stereo not drawn) | – | inconclusive: 14.8 µM [inhibitor, partial curve]
24 | Cn1cc(-c2ccncc2)c(-c2ccc(OCc3ccc4ccccc4n3)cc2)n1 | – | inconclusive: 7.43 µM [inhibitor, full curve]

system: MKL-2; assay: as above; settings: MCC and control cell lines, CellTiter-Glo viability, 72 h; activity change, negative = cytotoxicity: at 46 µM (top of the series)
Outline: as §2

Row | Structure (SMILES) | activity change, negative = cytotoxicity | Potency
25 | CC(C)(O)CCc1ccc(OCc2cc(-c3cccc(OC(F)F)c3)c3ncccc3c2)cc1 | inactive: 31.6% | –
26 | CC(C)(N)c1ccc(-c2nc3ccccc3nc2-c2ccccc2)cc1 | – | inconclusive: 13.2 µM [inhibitor, partial curve, poor fit]
27 | O=C(CC12CC3CC(CC(C3)C1)C2)Nc1cccc2nc(NCCNCCO)ccc12 | – | inconclusive: 37.2 µM [inhibitor, single point]
28 | Cc1cc(-c2ncc(CC(=O)Nc3ccc(-c4cnccn4)cn3)cc2C)ccn1 | – | inconclusive: 20.9 µM [inhibitor, single point]
29 | CCC(=O)O[C@]1(C(=O)CCl)[C@@H](C)C[C@H]2[C@@H]3CCC4=CC(=O)C=C[C@]4(C)[C@@]3(F)[C@@H](O)C[C@@]21C | – | inconclusive: 11.9 µM [inhibitor, partial curve]
30 | NC(=NCCCCCCN=C(N)N=C(N)Nc1ccc(Cl)cc1)N=C(N)Nc1ccc(Cl)cc1 | – | active: 11.8 µM
31 | N#CC(c1ccc(Cl)cc1)c1c(Cl)cc(-n2ncc(=O)[nH]c2=O)cc1Cl (stereo not drawn) | – | inconclusive: 26.4 µM [inhibitor, single point]
32 | Cc1cc(OCCCS(C)(=O)=O)cc(C)c1-c1cccc(COc2ccc3c(c2)OC[C@H]3CC(=O)O)c1 | – | inconclusive: 18.7 µM [inhibitor, partial curve, poor fit]
33 | CCc1nc(-c2cccc(C)c2)c(-c2ccnc(NC(=O)c3ccccc3)c2)s1 | – | inconclusive: 18.7 µM [inhibitor, single point]
34 | CN1CCN(c2cc(C(=O)Nc3ccc4c(c3)-c3c(c(C(N)=O)nn3-c3ccc(F)cc3)CC4)c(Cl)cn2)CC1 | – | active: 26.4 µM
35 | O=C(Nc1cccc2c(=O)cc(-c3nn[nH]n3)oc12)c1ccc(OCCCCc2ccccc2)cc1 | – | inconclusive: 37.2 µM [inhibitor, single point]
36 | CCCc1nc(C(C)(C)O)c(C(=O)O)n1Cc1ccc(-c2ccccc2-c2nn[nH]n2)cc1 | inactive: 4.24% | –
37 | C=CC(=O)Nc1cc(NC(=O)c2ccc(C)c(NC(=O)c3ccno3)c2)cc(C(F)(F)F)c1 | – | inconclusive: 4.69 µM [inhibitor, partial curve]
38 | CCNC(=O)Nc1ccc(Oc2ncnc(N)c2C=NOC)cc1Cl | inactive: -15.4% | –
39 | COc1ccc2cc1Oc1ccc(cc1)C[C@H]1c3cc(c(OC)cc3CCN1C)Oc1c(OC)c(OC)cc3c1[C@H](C2)N(C)CC3 | – | inconclusive: 29.6 µM [inhibitor, single point]
40 | O=C(O)CCNC(=O)c1ccc(N=Nc2ccc(O)c(C(=O)O)c2)cc1 | – | inactive
41 | CC1(O)CC(c2nc(-c3ccc4ccc(-c5ccccc5)nc4c3)c3c(N)nccn23)C1 (stereo not drawn) | – | inconclusive: 8.33 µM [inhibitor, partial curve]
42 | CCOC(=O)N1c2ccc(C(F)(F)F)cc2[C@@H](N(Cc2cc(C(F)(F)F)cc(C(F)(F)F)c2)C(=O)OC)C[C@H]1CC | inactive: -28.4% | –
43 | Cn1cc(-c2ccncc2)c(-c2ccc(OCc3ccc4ccccc4n3)cc2)n1 | – | inconclusive: 5.9 µM [inhibitor, full curve]
